# From PubChem BioAssay AID686979 (National Center for Advancing Translational Sciences (NCATS), 2013)
# “And” between values parts separate entries of the source, which are not always exact repeats. Equal entries are not always repeated. Screen size: about 420,000 compounds; about 50,000 (12%) were called active. This list was built around the results that the source calls inconclusive (neither active nor inactive); the mix of calls is not that of the screen. The call rests on the fitted dose curve; in most records, active means well fitted inhibition curve with a large enough effect; inconclusive means small, poorly fitted or top-dose-only effect; inactive means flat fitted curve, though single readings scatter. A potency beside an inconclusive call is a rough fit, not a confirmed value.
# Assay: qHTS for Inhibitors of human tyrosyl-DNA phosphodiesterase 1 (TDP1): qHTS in cells in presence of CPT; further: nearly all actives have a fitted effect of over 55% in size
# Settings: chicken DT40 Tdp1-/-;hTDP1 cells + 20 nM CPT, ATP luminescence, 48 h; activity change, negative = growth inhibition: at 46.2 µM (top of the series) unless noted
# Summary of the method: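 Chicken DT40 Tdp1-/- cells stably complemented with human TDP1 were seeded at 400 cells/well in medium containing 20 nM camptothecin, exposed to pin-transferred compounds, and grown at 37 °C for at least 48 hr. Viability was read as ATP luminescence.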
# On the % scale 0 is the no-effect control and ±100 the full control effect; potency means the concentration at half of the fitted maximal effect; tags describe the fitted curve by direction and shape.
Compound,Potency,"activity change, negative = growth inhibition"
COc1cc(-c2nc3oc4ccccc4c(=O)c3c(=O)n2Cc2ccco2)cc(OC)c1OC,active: 18.4 µM,–
CCC(CC)C(=O)Nc1cccc(C(=O)Nc2ccc(S(N)(=O)=O)cc2)c1,–,inactive: -6.34%
O=C(NCCc1ccccn1)c1cncc(Br)c1,–,inactive: 5.87%
Cc1onc(-c2ccccc2)c1C(=O)NCCc1c[nH]c2ccccc12,"inconclusive: 29.1 µM [inhibitor, single point]",–
COC(=O)c1cc(NS(=O)(=O)c2ccc(N3CCOCC3)c(NC(C)=O)c2)cc(C(=O)OC)c1,–,inactive: 33.5%
O=C(Cc1ccccc1F)Nc1cc(S(=O)(=O)N2CCOCC2)ccc1N1CCOCC1,–,inactive: -16.8%
CCc1cc(=O)oc2c3c(cc(OCC(=O)NCCN4CCOCC4)c12)OC(C)(C)CC3,–,inactive: -8.63%
CCOC(=O)c1sc2ncnc(N3CCN(c4ccc(OC)cc4)CC3)c2c1C,"inconclusive: 25.9 µM [inhibitor, single point]",–
O=C(CSc1ncnc2c1nnn2Cc1ccc(F)cc1)NCC1CCCO1 (centres undefined),"inconclusive: 25.9 µM [inhibitor, single point]",–
CC1(C)CN(c2ccccc2)N(C(=O)c2ccc(C#N)cc2)C1=O,–,inconclusive: -31.8% [inhibitor]
CCOc1cc2[nH]c(=S)n(C(C)C)c(=O)c2cc1OCC,active: 18.4 µM,–
C[C@H](CO)NC(=O)[C@H](C)[C@H]1C[C@]1(C)[C@H](NC(=O)OCc1ccccc1)c1ccccc1,–,inconclusive: -35.1% [inhibitor]
CCc1ccc(NC(=O)NCC2CCN(c3ccc(OC)cc3)C2)cc1 (centres undefined),active: 9.2 µM,–
CN(CCOc1ccc(Cl)c(Cl)c1)Cc1ccccc1,"inconclusive: 25.9 µM [inhibitor, single point]",–
COc1ccc(-c2nc3ccccc3c(=O)n2CCc2ccc(O)cc2)cc1,active: 14.6 µM,–
CN(C)c1ccc(/C=C(\C#N)C(=O)c2ccccc2)cc1,–,inactive: -26.5%
CCn1c(=N)c(C(=O)NCC2CCCO2)cc2c(=O)n3cc(C)ccc3nc21 (centres undefined),–,inactive: -1.75%
O=S(=O)(NCC(c1ccccc1)N1CCc2ccccc21)c1ccccc1 (centres undefined),"inconclusive: 18.4 µM [inhibitor, single point]",–
COCc1nc2ccccc2n1Cc1cccc(C)c1,"inconclusive: 29.1 µM [inhibitor, single point] and inconclusive: 14.6 µM [inhibitor, partial curve]",–
O=c1c2ccccc2n(Cc2c(F)cccc2Cl)c(=O)n1Cc1ccccc1,"inconclusive: 16.4 µM [inhibitor, partial curve, poor fit]",–
Cc1ccc(Cn2c(CNC(=O)Cc3cccc([N+](=O)[O-])c3)nc3cccnc32)cc1,"inconclusive: 18.4 µM [inhibitor, single point]",–
CCCCN(Cc1cc2cc(OC)ccc2[nH]c1=O)C(=O)c1ccco1,"inconclusive: 18.4 µM [inhibitor, single point]",–
CC(=C/C(=O)O)/C(=C/c1ccccc1)C(=O)O,–,inactive: 6.83%

Compound,Potency,"activity change, negative = growth inhibition"
COc1ccccc1-c1cc(C(=O)Nc2sc3c(c2C#N)CCC(C)C3)c2ccccc2n1 (centres undefined),"inconclusive: 18.4 µM [inhibitor, single point]",–
Cc1ccc(N2CC(C(=O)Nc3ccccc3C(=O)NC3CCCCC3)CC2=O)cc1C (centres undefined),"inconclusive: 6.51 µM [inhibitor, full curve]",–
Cc1ccc(CONC(=O)/N=C/N(C)C)cc1,–,inactive: 0.0076%
CCCCCc1nnc(NC(=O)C(=O)OCC)s1,–,inactive: 8.87%
CCCOc1ccc(NC(=O)CC2C(=O)N(c3ccc(F)cc3)C(=O)N2CC(C)C)cc1 (centres undefined),"inconclusive: 23.1 µM [inhibitor, single point]",–
O=C(c1ccc(Cl)c(S(=O)(=O)N2CCOCC2)c1)N1CCCCC1,–,inactive: -4.17%
CC(C)CC(COCc1ccc(Cl)cc1)N1CCN(C(=O)c2cccc(C(F)(F)F)c2)CCC1=O (centres undefined),active: 16.4 µM,–
COc1ccccc1/C=C/C(=O)OCC(=O)N1CCN(S(=O)(=O)c2ccc(C)cc2C)CC1,"inconclusive: 29.1 µM [inhibitor, single point]",–
CC(C)[C@H](NC(=O)c1ccccc1F)C(=O)OCC(=O)NC(=O)NC1CCCCC1,"inconclusive: 18.4 µM [inhibitor, single point]",–
O=C(CCN1C(=O)c2cccc([N+](=O)[O-])c2C1=O)Nc1nccs1,–,inactive: 10.5%
CCN(CC)S(=O)(=O)c1ccc(N2CCOCC2)c(NC(=O)Cc2ccc(Cl)cc2)c1,"inconclusive: 23.1 µM [inhibitor, single point]",–
CCn1c(=O)cc(OCC(=O)N2CCN(c3cccc(Cl)c3)CC2)c2ccccc21,active: 23.1 µM,–
O=C(NCc1cccs1)C1CCN(c2ccc(S(=O)(=O)N3CCOCC3)cc2Cl)CC1,active: 3.66 µM,–
Cc1ccc2c(c1)sc1nc(=O)n(-c3ccc(Cl)c(Cl)c3)c(=O)n12,"inconclusive: 16.4 µM [inhibitor, single point] and inconclusive: 13 µM [inhibitor, single point]",–
COc1ccc(C2=C(C)C(=NCc3ccc(OC(C)C)cc3)NS2(=O)=O)cc1,"inconclusive: 18.4 µM [inhibitor, single point]",–
CCOC(=O)c1cc(CC)sc1NC(=O)c1cccc(N2C(=O)CCC2=O)c1,–,inactive: -1.35%
CCc1ccc(-c2cc(C)no2)cc1S(=O)(=O)Nc1cc(OC)c(OC)c(OC)c1,active: 16.4 µM,–
C/C(=C\c1ccc(Cl)cc1)C(=O)c1c(C)cc(C)[nH]c1=O,"inconclusive: 23.1 µM [inhibitor, single point]",–
CCCCOc1ccc(CNC(=O)C2CCCN(c3nnc(-n4c(C)ccc4C)s3)C2)cc1 (centres undefined),"inconclusive: 10.3 µM [inhibitor, partial curve]",–
CC(C)(C)OC(=O)N1CCc2onc(-c3ccc(Cl)cc3)c2C1=O,"inconclusive: 29.1 µM [inhibitor, single point]",–
Cc1ccc(-n2nc(C)c3c(C)c(CCC(=O)Nc4ccc(CN5CCCC5)cc4)c(C)nc32)cc1,"inconclusive: 23.1 µM [inhibitor, single point]",–
COc1cc(C(=O)N2CCC(c3nc4ccccc4s3)CC2)cc(OC)c1OC,"inconclusive: 29.1 µM [inhibitor, single point]",–
CNc1ncnc2c1ncn2[C@H]1CN(Cc2ccc(Cl)cc2)C[C@@H](CO)O1,"inconclusive: 23.1 µM [inhibitor, partial curve]",–

Compound,Potency,"activity change, negative = growth inhibition"
CCOc1ccc(Br)cc1S(=O)(=O)Nc1ccc(C(=O)Nc2ccc(C)cc2)cc1,"inconclusive: 20.6 µM [inhibitor, single point]",–
COCc1ccc(CN2CCCC(CO)(Cc3ccccc3C)C2)o1 (centres undefined),–,inactive: -7.74%
Cc1ccccc1NC(=O)Cc1nc(COC(=O)c2nccnc2N)cs1,–,inactive: -9.83%
CNCc1ccccc1OCC(=O)Nc1ccccc1OC,–,inconclusive: -30.7% [inhibitor]
Cc1c([N+](=O)[O-])oc2c1C(=O)NCCC2,"inconclusive: 18.4 µM [inhibitor, single point]",–
COc1ccc(N2C(=O)C(C)(C)C2c2c(O)ccc3ccccc23)cc1 (centres undefined),active: 20.6 µM,–
O=C(NCc1ccccc1)C1=C[C@@H](c2ccc(Br)cc2)C[C@@H](OCc2ccc(CO)cc2)O1,"inconclusive: 29.1 µM [inhibitor, single point]",–
O=C(CNC(=O)c1ccccc1)Oc1cccc(Cl)c1,–,inactive: 9.15%
COc1ccc(C(=O)NCCn2cc(SCC(=O)Nc3ccc(F)cc3)c3ccccc32)cc1,"inconclusive: 29.1 µM [inhibitor, single point]",–
FC(F)(F)c1nc2ccccc2nc1N/N=C\c1ccccc1,active: 20.6 µM,–
CNC(=O)c1cc(Oc2ccc(NC(=O)Nc3ccc(Cl)c(C(F)(F)F)c3)cc2)ccn1,active: 3.16 µM and active: 11.9 µM and active: 20.6 µM,–
CCNc1ccc(-c2nc(-c3ccncc3)no2)cc1[N+](=O)[O-],–,inconclusive: -31.7% [inhibitor]
O=C(c1cccs1)N1CCC(c2ccccc2)C1 (centres undefined),–,inactive: -5.57%
O=C(O)c1ccc(-c2ccc(/C=C3\NC(=O)N(Cc4ccc(Cl)cc4)C3=O)o2)cc1,"inconclusive: 29.1 µM [inhibitor, single point]",–
Cc1ccc2cc(CN(Cc3ccco3)C(=O)C3CCCCC3)c(=O)[nH]c2c1C,"inconclusive: 18.4 µM [inhibitor, partial curve]",–
CCOC(=O)C1(Cc2cccc(OC)c2)CCN(CC2CC=CCC2)CC1 (centres undefined),"inconclusive: 29.1 µM [inhibitor, single point]",–
CCN(C(=O)CSc1nc2ccccc2c(=O)n1-c1cccc(C)c1)C1CCS(=O)(=O)C1 (centres undefined),active: 16.4 µM,–
CCC(=O)Nc1ccc(/C=C(\C(C)=O)C(=O)c2ccccc2)cc1,"inconclusive: 18.4 µM [inhibitor, single point]",–
Cn1c2ccccc2c2c(C(=O)NCc3ccco3)cn(C3CCCCC3)c(=O)c21,"inconclusive: 16.4 µM [inhibitor, single point]",–
CCN(CC)CCN(C(=O)c1ccc2c(c1)CCCC2)c1nc2ccc(C)cc2s1,"inconclusive: 23.1 µM [inhibitor, single point]",–
CC(C)(C)c1ccc(C(=O)NCCC(=O)NCc2cccs2)cc1,"inconclusive: 20.6 µM [inhibitor, single point]",–
O=C(NCC1CCCO1)c1ccc2c(=O)n(CC3CCCO3)c(SCC(=O)N3CCCC3)nc2c1 (centres undefined),–,inactive: -6.77%
CCN(CC)C(=O)c1sc(NC(=O)C(Sc2ccccc2)c2ccccc2)c(C(=O)OC(C)C)c1C (centres undefined),"inconclusive: 29.1 µM [inhibitor, single point]",–
